# In all, about 310,000 compounds went through this assay and about 14,000 (4.5%) showed an effect of 50% or more. Effects have a minus sign here. This is one part of the list.
# Biological target: human ether-à-go-go-related gene (hERG) potassium channel (human, UniProt Q12809)
# Test: primary screen, population patch clamp on CHO cells stably expressing hERG
# 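Further: peak tail current of the secondary pulse compared with the same well before compound.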
# Chain of human ether-à-go-go-related gene (hERG) potassium channel (Q12809 whole entry, looked up): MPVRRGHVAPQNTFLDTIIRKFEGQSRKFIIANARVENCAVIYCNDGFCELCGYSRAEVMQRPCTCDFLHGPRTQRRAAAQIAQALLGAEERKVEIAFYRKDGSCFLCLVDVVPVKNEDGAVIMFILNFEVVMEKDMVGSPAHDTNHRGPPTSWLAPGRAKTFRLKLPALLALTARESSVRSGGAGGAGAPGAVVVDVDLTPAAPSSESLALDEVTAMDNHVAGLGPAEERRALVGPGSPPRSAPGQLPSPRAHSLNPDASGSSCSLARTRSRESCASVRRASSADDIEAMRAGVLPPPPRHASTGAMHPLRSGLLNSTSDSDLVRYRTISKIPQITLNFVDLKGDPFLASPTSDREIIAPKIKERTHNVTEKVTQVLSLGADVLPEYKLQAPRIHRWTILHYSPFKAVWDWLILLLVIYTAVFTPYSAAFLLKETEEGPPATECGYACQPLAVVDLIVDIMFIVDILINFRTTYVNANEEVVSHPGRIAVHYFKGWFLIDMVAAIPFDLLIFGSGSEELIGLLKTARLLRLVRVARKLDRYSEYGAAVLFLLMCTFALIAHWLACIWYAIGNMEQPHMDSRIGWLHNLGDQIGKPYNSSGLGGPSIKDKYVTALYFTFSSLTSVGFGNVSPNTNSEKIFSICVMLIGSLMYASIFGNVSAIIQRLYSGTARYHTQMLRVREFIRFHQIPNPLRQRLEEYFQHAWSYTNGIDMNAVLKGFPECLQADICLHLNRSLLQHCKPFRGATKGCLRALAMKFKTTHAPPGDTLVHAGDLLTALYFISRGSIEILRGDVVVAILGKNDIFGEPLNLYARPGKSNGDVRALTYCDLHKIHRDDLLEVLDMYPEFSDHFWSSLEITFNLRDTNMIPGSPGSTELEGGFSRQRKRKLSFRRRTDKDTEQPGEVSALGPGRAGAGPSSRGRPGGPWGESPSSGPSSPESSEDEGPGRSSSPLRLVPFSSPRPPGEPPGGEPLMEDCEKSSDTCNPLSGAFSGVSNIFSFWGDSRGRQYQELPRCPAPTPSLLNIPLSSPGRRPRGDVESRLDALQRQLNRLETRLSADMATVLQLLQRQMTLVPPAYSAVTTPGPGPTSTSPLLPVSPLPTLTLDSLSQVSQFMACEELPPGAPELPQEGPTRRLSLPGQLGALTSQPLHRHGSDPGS
row,Structure (SMILES),"hERG current change (%, negative = inhibition) at 10uM [%]"
1,Cc1ccc(-c2csc3ncn(CC(N)=O)c(=O)c23)cc1C,12.9
2,CCNc1nc(NCC)n2c(SCC(=O)N(CC)C3CCCCC3)nnc2n1,-37.2
3,O=C(Cc1cccs1)Nc1nnc(SCC(=O)N2CCCCC2)s1,-3.21
4,CC(NC(=O)c1cc(-c2ccc(Br)cc2)on1)c1ccccc1 (stereo not shown),2.49
5,CCOc1ccc(-c2nnc(-c3ccco3)o2)cc1OCC,-4.11
6,O=C(NC1CCCCC1)C(c1ccncc1)N(C(=O)c1csnn1)c1ccc(F)cc1 (stereo not shown),24.5
7,Cc1ccc(S(=O)(=O)N(CC(=O)N2CCN(c3ccc(F)cc3)CC2)C2CCCCC2)cc1,-43.7
8,C#C[C@@]1(O)CCC2C3CCC4=C/C(=N/OCC(=O)NC(C(=O)O)C(C)O)CC[C@]4(C)C3CC[C@@]21C (stereo partly shown),13.6
9,CC(Oc1ccc(Cl)cc1)C(=O)Nc1cccc(S(=O)(=O)N2CCOCC2)c1 (stereo not shown),-39.2
10,O=C(COC(=O)C1=COCCO1)Nc1ccccc1OC(F)F,4.81
11,CC(Oc1ccccc1)C(=O)N1CCN=C1SCc1ccccc1 (stereo not shown),-10
12,O=C(c1ccc(Cl)cc1)C1CCN(C(=O)N2CCOCC2)CC1,-3.46
13,CCN(CC)S(=O)(=O)c1cc(C(=O)OCC(=O)c2ccc3c(c2)NC(=O)CO3)ccc1F,0.331
14,Cc1cccc(NC(=S)NCC(C)CSc2ccc(Cl)cc2)c1 (stereo not shown),32.5
15,CCOC(=O)c1ccccc1NS(=O)(=O)c1ccc(C)cc1,-3.6
16,CCCCOC(=O)C(C)c1c(C)[nH]c(=S)[nH]c1=O (stereo not shown),20.8
17,O=[N+]([O-])c1ccc2ccn(C3OCC(O)C(O)C3O)c2c1 (stereo not shown),7.86
18,COc1ccc(-n2ccc(=O)c(C(=O)Nc3ccc(S(=O)(=O)Nc4nccs4)cc3)n2)cc1,11.9
19,Cc1cccc(NC(=O)NCCN2CCN(c3ccccc3)CC2)c1C,-9.69
20,CCn1c(COc2ccc(C)cc2)nc2ccccc21,-7.31
21,Cc1ccc(S(=O)(=O)N2CCC(C(=O)NCC3CCCCC3)CC2)cc1,-5.7
22,CC(C)(C)C(=O)O/N=C(\N)c1ccc(Oc2cc(Cl)cc(Cl)c2)c([N+](=O)[O-])c1,5.82
23,CN(C)C(=O)c1ccc(Nc2nnc(-c3ccc(O)cc3)c3ccccc23)cc1,3.89
24,CSc1nsc(SCC(=O)N2CCN(c3ccccc3)CC2)n1,-29.2
25,CCN(CC)c1nc2cc(C)ccc2cc1/C=C(\C#N)C(N)=O,13.6
26,O=C(COc1ccc(Cl)cc1[N+](=O)[O-])N1CCCCCC1,22.3
27,COc1ccccc1NC(=O)CCc1nnc2ccc(N3CCN(C)CC3)nn12,14.7
28,COc1ccc(CN2CCN(C(C)C(=O)N3CCc4ccccc43)CC2)cc1OC (stereo not shown),-74

row,Structure (SMILES),"hERG current change (%, negative = inhibition) at 10uM [%]"
1,c1ccc(N=Nc2ccc3cccccc2-3)cc1,8.38
2,CCOC(=O)O[C@]1(C(=O)OCCl)CC[C@H]2[C@@H]3CCC4=CC(=O)C=C[C@]4(C)[C@H]3[C@@H](O)C[C@@]21C,15.1
3,Cc1ccccc1C(=O)N1CCN(c2ccc(NC(=O)c3cccnc3)cc2)CC1,-23
4,COc1cc(-c2nnc(NC(=O)CS(=O)(=O)c3ccc(F)cc3)o2)cc(OC)c1OC,22.4
5,COc1ccc2c(c1)c(CC(=O)OCC(N)=O)c(C)n2C(=O)c1ccc(Cl)cc1,-3.15
6,O=C(Nc1nccs1)c1ccc(-c2ccc(F)cc2)o1,-0.742
7,COc1ccc(C(=O)CN2CCN(S(=O)(=O)c3cccc([N+](=O)[O-])c3)CC2)cc1,-112
8,COc1ccc(N2C(=NC(=O)c3ccc(Br)cc3)SC3CS(=O)(=O)CC32)cc1 (stereo not shown),6.78
9,Cc1nc(Cl)c(C#N)cc1-c1ccccc1,-12.2
10,Cc1ccc(-c2cc(C(=O)N3CCCc4ccccc43)c3ccccc3n2)cc1,-2.95
11,Brc1ccc(-c2cn3ccccc3n2)s1,-15.4
12,Cc1nonc1N1CCN(Cc2cn[nH]c2-c2ccc3c(c2)OCO3)CC1,-26.3
13,CCCCOC(=O)C1=C(C)NC(=O)NC1c1cc2c(cc1Br)OCO2 (stereo not shown),7.08
14,CN(C)C(/C=C/Nc1cccc(Br)c1)=C(C#N)C#N,9.79
15,Cc1c(/C=C/C(=O)c2ccc(C(C)C)cc2)cnn1C,-5.37
16,COc1ccc(-c2cn3cc(C)ccc3n2)cc1Br,16.6
17,CC1CCCCC1NC(=S)Nc1ccc(Cl)cc1Cl (stereo not shown),4.31
18,COc1ccc(-c2cc(C(=O)N3CCN(c4ccc(F)cc4)CC3)no2)cc1OC,12.5
19,CSCCC(NC(=O)c1ccccc1Cl)C(=O)NCC(c1ccco1)N1CCCCC1 (stereo not shown),-17.9
20,CCn1cc(C(=O)N2CC(C)CC(C)C2)c(=O)c2cc(S(=O)(=O)N3CCCC3)ccc21 (stereo not shown),6.81
21,COc1ccc(C(=O)NC(=S)Nc2ccc(CN3CCOCC3)cc2)cc1Br,15.6
22,Cc1c(C(=O)O)sc2nc(/C=C/c3ccccc3OC(F)F)[nH]c(=O)c12,12.7
23,COc1ccc(CNS(=O)(=O)c2ccc(-c3cc(C)no3)cc2)cc1,4.28
24,CCOC(=O)c1c(NC(=O)C(=O)N/N=C(\C)c2ccc(OC)cc2)sc2c1CCCCC2,13
25,COC(=O)c1ccccc1C(=O)c1ccc2c(c1)NC(=O)CO2,7.43
26,Cn1c(=O)[nH]c(=O)c2c1nc(N1CCNCC1)n2Cc1ccccc1Cl,11.1
27,COc1ccc2c(COC(=O)CNS(=O)(=O)c3ccc(C)c(C)c3)cc(=O)oc2c1,-57.7
